This is one part of the list. Many values rest on one well or one pass, so single values are uncertain.
Legend:
Test in all cases: cell count relative to DMSO control; melanoma cells; higher = more viable cells
Conditions in all cases: library dose: low library concentration; 72 h
MZ2-MEL = system: MZ2-MEL
MeWo = system: MeWo
RPMI7951 = system: RPMI7951
RVH-421 = system: RVH-421
SkMel28 = system: SkMel28
SkMel2 = system: SkMel2
SkMel30 = system: SkMel30
SkMel5 = system: SkMel5
UACC257 = system: UACC257
UACC62 = system: UACC62
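Further: cell number obtained by counting DAPI-stained nuclei in high-throughput microscope images with image analysis software, screen run in 1,536-well plates.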

Compound | cell count (MZ2-MEL) [%] | cell count (MeWo) [%] | cell count (RPMI7951) [%] | cell count (RVH-421) [%] | cell count (SkMel28) [%] | cell count (SkMel2) [%] | cell count (SkMel30) [%] | cell count (SkMel5) [%] | cell count (UACC257) [%] | cell count (UACC62) [%]
C[C@@H](Oc1cc(-c2cnn(C3CCNCC3)c2)cnc1N)c1c(Cl)ccc(F)c1Cl [Crizotinib] + CCc1ccc(CCOc2ccc(CC3SC(=O)NC3=O)cc2)nc1 [pioglitazone] (first compound 0.2 µM, partner dose 2 µM) | 102 | 107 | 102 | 94.6 | 88.4 | 90.5 | 95.6 | 95.5 | 104 | 103
CS(=O)(=O)CCNCc1ccc(-c2ccc3ncnc(Nc4ccc(OCc5cccc(F)c5)c(Cl)c4)c3c2)o1 [lapatinib] + CC(C)CCN1c2nc(Nc3cc(F)c(O)c(F)c3)ncc2N(C)C(=O)C1C [BID1870] (first compound 0.8 µM, partner dose 0.2 µM) | 104 | 76.9 | 87.2 | 90.3 | 71.8 | 87.9 | 96 | 83.7 | 60.6 | 99.9
C[C@@H](Oc1cc(-c2cnn(C3CCNCC3)c2)cnc1N)c1c(Cl)ccc(F)c1Cl [Crizotinib] + NC(=O)Nc1cc(-c2cccc(F)c2)sc1C(=O)N[C@H]1CCCNC1 [AZD7762] (first compound 0.2 µM, partner dose 0.02 µM) | 113 | 98.4 | 96.9 | 140 | 90.1 | 95.6 | 123 | 99.2 | 104 | 99
C=CCNC1=C2C[C@@H](C)C[C@H](OC)[C@H](O)[C@@H](C)/C=C(\C)[C@H](OC(N)=O)[C@@H](OC)/C=C\C=C(/C)C(=O)NC(=CC1=O)C2=O [Tanespimycin] + CC(C)(C)c1cnc(CSc2cnc(NC(=O)C3CCNCC3)s2)o1 [SNS-032] (first compound 0.002 µM, partner dose 0.01 µM) | 103 | 107 | 73.7 | 116 | 105 | 90.8 | 113 | 95.6 | 101 | 80.3
C=CCNC1=C2C[C@@H](C)C[C@H](OC)[C@H](O)[C@@H](C)/C=C(\C)[C@H](OC(N)=O)[C@@H](OC)/C=C\C=C(/C)C(=O)NC(=CC1=O)C2=O [Tanespimycin] + C=CCn1c(=O)c2cnc(Nc3ccc(N4CCN(C)CC4)cc3)nc2n1-c1cccc(C(C)(C)O)n1 [MK1775] (first compound 0.002 µM, partner dose 0.02 µM) | 104 | 109 | 86.3 | 99.8 | 79.1 | 83.6 | 87.9 | 71.9 | 76.8 | 81.4
C[C@@H](Oc1cc(-c2cnn(C3CCNCC3)c2)cnc1N)c1c(Cl)ccc(F)c1Cl [Crizotinib] + Cn1cc(/C=C2\C(=O)Nc3cccnc32)c2ccccc21 [GW441756] (first compound 0.2 µM, partner dose 0.4 µM) | 100 | 99.4 | 113 | 126 | 98.9 | 104 | 78.8 | 91.9 | 91.2 | 88.9
CNC(=O)c1cc(Oc2ccc(NC(=O)Nc3ccc(Cl)c(C(F)(F)F)c3)cc2)ccn1 [sorafenib] + Oc1nc(-c2ccc(C(F)(F)F)cc2)nc2c1CSCC2 [XAV939] (first compound 0.4 µM, partner dose 2 µM) | 96.2 | 94.5 | 86.4 | 104 | 101 | 111 | 104 | 89.1 | 76.7 | 106
CN1CCN(c2ccc3nc(-c4c(N)c5c(F)cccc5[nH]c4=O)[nH]c3c2)CC1 [Dovitinib] + COc1cc(N2CCC(N3CCN(C)CC3)CC2)ccc1Nc1ncc(Cl)c(Nc2ccccc2S(=O)(=O)C(C)C)n1 [NVP-TAE684] (first compound 0.1 µM, partner dose 0.08 µM) | 90.4 | 76.5 | 109 | 98.1 | 81.3 | 95 | 81.7 | 74.5 | 73.8 | 88.7
C[C@@H](Oc1cc(-c2cnn(C3CCNCC3)c2)cnc1N)c1c(Cl)ccc(F)c1Cl [Crizotinib] + COc1ccc2c(c1)CCC1C2CCC2(C)C(NCCCCCCN3C(=O)C=CC3=O)CCC12 [U73122] (first compound 0.2 µM, partner dose 0.4 µM) | 97.6 | 106 | 95.2 | 65.1 | 97.8 | 93.2 | 114 | 99.6 | 94.8 | 90.7
CN1CCN(c2ccc3nc(-c4c(N)c5c(F)cccc5[nH]c4=O)[nH]c3c2)CC1 [Dovitinib] + Cn1cc(/C=C2\C(=O)Nc3cccnc32)c2ccccc21 [GW441756] (first compound 0.1 µM, partner dose 0.4 µM) | 98 | 100 | 113 | 94.6 | 82 | 103 | 97.2 | 95.9 | 95.3 | 88.4
C=CCNC1=C2C[C@@H](C)C[C@H](OC)[C@H](O)[C@@H](C)/C=C(\C)[C@H](OC(N)=O)[C@@H](OC)/C=C\C=C(/C)C(=O)NC(=CC1=O)C2=O [Tanespimycin] + N#Cc1c(O)c2c(-c3ccc(-c4ccccc4O)cc3)csc2[nH]c1=O [A769662] (first compound 0.002 µM, partner dose 2 µM) | 100 | 97.9 | 99.1 | 83 | 89.6 | 105 | 108 | 85.8 | 108 | 105
CNC(=O)c1cc(Oc2ccc(NC(=O)Nc3ccc(Cl)c(C(F)(F)F)c3)cc2)ccn1 [sorafenib] + COc1cc2ncnc(Nc3ccc(Oc4ccccc4)cc3)c2cc1OC [SrcI1] (first compound 0.4 µM, partner dose 2 µM) | 88.6 | 95 | 91.4 | 116 | 96.8 | 105 | 116 | 97.1 | 90.6 | 103
C[C@@H](Oc1cc(-c2cnn(C3CCNCC3)c2)cnc1N)c1c(Cl)ccc(F)c1Cl [Crizotinib] + O=S(=O)(c1ccccc1)N(CC(F)(F)F)c1ccc(C(O)(C(F)(F)F)C(F)(F)F)cc1 [T0901317] (first compound 0.2 µM, partner dose 1.4 µM) | 93.7 | 90 | 105 | 75.5 | 81.4 | 89 | 84.8 | 74.1 | 75 | 89.7
CN1CCN(c2ccc3nc(-c4c(N)c5c(F)cccc5[nH]c4=O)[nH]c3c2)CC1 [Dovitinib] + O=c1cc(-c2cccc3c2Sc2ccccc2S3)oc(N2CCOCC2)c1 [KU55933] (first compound 0.1 µM, partner dose 1 µM) | 105 | 101 | 123 | 102 | 88.6 | 110 | 94.8 | 98.5 | 94.7 | 79.9
CS(=O)(=O)CCNCc1ccc(-c2ccc3ncnc(Nc4ccc(OCc5cccc(F)c5)c(Cl)c4)c3c2)o1 [lapatinib] + C=CCn1c(=O)c2cnc(Nc3ccc(N4CCN(C)CC4)cc3)nc2n1-c1cccc(C(C)(C)O)n1 [MK1775] (first compound 0.8 µM, partner dose 0.02 µM) | 106 | 88.1 | 94.1 | 81.2 | 100 | 93.6 | 92.4 | 104 | 82.8 | 81.4
CS(=O)(=O)CCNCc1ccc(-c2ccc3ncnc(Nc4ccc(OCc5cccc(F)c5)c(Cl)c4)c3c2)o1 [lapatinib] + COc1ccc(-c2ccc3c(N4CCOCC4)nc(N4C[C@@H](C)O[C@@H](C)C4)nc3n2)cc1CO [KU0063794] (first compound 0.8 µM, partner dose 0.02 µM) | 90 | 101 | 98.9 | 130 | 95.7 | 101 | 105 | 114 | 81.1 | 98.1
CNC(=O)c1cc(Oc2ccc(NC(=O)Nc3ccc(Cl)c(C(F)(F)F)c3)cc2)ccn1 [sorafenib] + Cn1cc(/C=C2\C(=O)Nc3cccnc32)c2ccccc21 [GW441756] (first compound 0.4 µM, partner dose 0.4 µM) | 92 | 99.5 | 85.8 | 92.6 | 98.1 | 106 | 91.9 | 76.2 | 77.8 | 84.9
CNC(=O)c1cc(Oc2ccc(NC(=O)Nc3ccc(Cl)c(C(F)(F)F)c3)cc2)ccn1 [sorafenib] + O=C(O)C(=O)Nc1sc2c(c1C(=O)O)CCNC2 [TCS401] (first compound 0.4 µM, partner dose 1.66667 µM) | 93.4 | 105 | 83.6 | 88.1 | 105 | 102 | 94.5 | 97.9 | 95.3 | 85.1
C=CCNC1=C2C[C@@H](C)C[C@H](OC)[C@H](O)[C@@H](C)/C=C(\C)[C@H](OC(N)=O)[C@@H](OC)/C=C\C=C(/C)C(=O)NC(=CC1=O)C2=O [Tanespimycin] + O=C(CCCCCCC(=O)Nc1ccccc1)NO [vorinostat] (first compound 0.002 µM, partner dose 0.08 µM) | 104 | 84.9 | 77.3 | 110 | 81.5 | 93.2 | 92.8 | 89.1 | 81.3 | 88.7
